PubChem BioAssay AID504332 (National Center for Advancing Translational Sciences (NCATS), 2011)
Screen size: about 350,000 compounds; about 31,000 (8.9%) were called active. The inconclusive results got no clear call from the source; some entries with a clear call stand among them for comparison. The call rests on the fitted dose curve; in most records, active means well fitted inhibition curve with a large enough effect; inconclusive means small, poorly fitted or top-dose-only effect; inactive means no such curve, though single readings can be large or run the other way. A potency beside an inconclusive call is a rough fit, not a confirmed value.

Target: Histone-lysine N-methyltransferase EHMT2 (Homo sapiens) (UniProt Q96KQ7)
Sequence of UniProt Q96KQ7 (Q96KQ7 whole entry, looked up): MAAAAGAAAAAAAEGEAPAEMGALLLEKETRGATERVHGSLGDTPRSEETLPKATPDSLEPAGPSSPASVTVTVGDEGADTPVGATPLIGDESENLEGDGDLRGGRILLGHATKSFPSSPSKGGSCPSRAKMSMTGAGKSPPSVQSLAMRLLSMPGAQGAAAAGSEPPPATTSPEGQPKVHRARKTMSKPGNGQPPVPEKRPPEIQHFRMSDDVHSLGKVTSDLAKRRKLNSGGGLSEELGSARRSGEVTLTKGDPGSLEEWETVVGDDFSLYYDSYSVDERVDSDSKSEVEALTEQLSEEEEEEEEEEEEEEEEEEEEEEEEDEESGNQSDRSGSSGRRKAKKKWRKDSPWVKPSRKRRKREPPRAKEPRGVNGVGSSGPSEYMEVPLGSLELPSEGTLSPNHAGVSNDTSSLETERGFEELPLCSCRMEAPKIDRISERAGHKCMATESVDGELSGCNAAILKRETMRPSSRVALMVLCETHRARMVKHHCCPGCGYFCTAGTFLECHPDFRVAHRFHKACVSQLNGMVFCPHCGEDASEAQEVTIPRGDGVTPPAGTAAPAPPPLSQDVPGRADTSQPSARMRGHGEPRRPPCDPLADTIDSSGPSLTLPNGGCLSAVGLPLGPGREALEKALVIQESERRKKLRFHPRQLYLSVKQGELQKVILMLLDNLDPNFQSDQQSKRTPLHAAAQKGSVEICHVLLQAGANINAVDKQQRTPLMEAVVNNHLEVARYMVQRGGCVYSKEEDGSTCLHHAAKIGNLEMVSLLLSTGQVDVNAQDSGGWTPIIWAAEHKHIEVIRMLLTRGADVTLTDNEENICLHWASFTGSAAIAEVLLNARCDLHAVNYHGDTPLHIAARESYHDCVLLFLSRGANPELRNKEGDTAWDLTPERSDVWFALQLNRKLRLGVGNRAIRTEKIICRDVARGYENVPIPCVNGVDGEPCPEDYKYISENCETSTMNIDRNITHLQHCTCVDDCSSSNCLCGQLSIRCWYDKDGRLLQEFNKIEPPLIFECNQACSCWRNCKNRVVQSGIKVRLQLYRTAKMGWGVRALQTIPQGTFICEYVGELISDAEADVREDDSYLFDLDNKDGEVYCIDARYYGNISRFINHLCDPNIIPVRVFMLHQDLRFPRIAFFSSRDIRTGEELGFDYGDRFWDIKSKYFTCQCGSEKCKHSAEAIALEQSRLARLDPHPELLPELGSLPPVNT
Experiment: qHTS Assay for Inhibitors of Histone Lysine Methyltransferase G9a; further: nearly all actives have a fitted effect of over 75% in size
Details: G9a H3K9 monomethylation, AlphaScreen, 2 h; activity, negative = inhibition: at 59 µM (top of the series) unless noted
Summary of the method: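 Compounds were preincubated with 20 nM G9a for 15 min, after which biotinylated H3K9 peptide (500 nM) and SAM (20 uM) started a 2 h room-temperature reaction. Monomethylated product was quantified by antibody-based AlphaScreen chemiluminescence.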
On the % scale 0 is the no-effect control and ±100 the full control effect; potency means the concentration at half of the fitted maximal effect; tags describe the fitted curve by direction and shape.

Row | Compound | Potency | activity, negative = inhibition
1 | Cc1[nH]c2ccccc2c1/C=N/n1cnnc1 | inactive | 
2 | COc1nccnc1NS(=O)(=O)c1ccc(N=Cc2c(C)[nH]n(-c3ccc(Cl)cc3)c2=O)cc1 | active: 25.1 µM | 
3 | O=S(=O)(c1cccc(S(=O)(=O)N2CCC(Cc3ccccc3)CC2)c1)N1CCOCC1 | inconclusive: 25.1 µM [inhibitor, single point] | 
4 | O=S(=O)(c1ccccc1)c1nc(-c2ccccc2F)oc1NCc1cccnc1 | inactive | 
5 | COc1ccc(C(=O)/C=C/Nc2ccc(S(=O)(=O)Nc3ncccn3)cc2)cc1 | inconclusive: 79.4 µM [inhibitor, partial curve, poor fit] | 
6 | Cc1ccsc1/C=C(\C#N)C(=O)Nc1c(C)n(C)n(-c2ccccc2)c1=O | inconclusive: 0.631 µM [inhibitor, partial curve, poor fit] | 
7 | COCCn1c(SCC(=O)N2CCCc3ccccc32)nnc1-c1ccoc1C | inconclusive: 17.8 µM [inhibitor, single point] | 
8 | Cc1c(C(=O)O)c(O)cc2c1C(=O)c1c(O)c([C@H]3O[C@H](CO)[C@@H](O)[C@H](O)[C@H]3O)c(O)c(O)c1C2=O | active: 7.08 µM | 
9 | COc1ccc(COc2cc(-c3cccc(OC)c3)nc3ccc(N)cc23)cc1 | active: 44.7 µM | 
10 | O=C(O)C1CC(=O)N(c2ccc(F)cc2)C1 (centres undefined) |  | inactive: -10.2% [at 12.7 µM]
11 | Cc1cccc(OCC(=O)Nc2cccc(O)c2)c1 | inconclusive: 31.6 µM [inhibitor, single point] | 
12 | CCOc1ccc2[nH]c3ncccc3c(=O)c2c1 | inactive | 
13 | Cc1nc2ccc(NC(=O)c3cc([N+](=O)[O-])cc([N+](=O)[O-])c3Cl)cc2s1 | active: 6.31 µM | 
14 | COc1cccc(C(=O)CSc2nccn2C)c1 | active: 50.1 µM | 
15 | COc1ccc(NC2CCCN(C(=O)CCc3scnc3C)C2)cc1 (centres undefined) | inconclusive: 89.1 µM [inhibitor, single point] | 
16 | O=C(NNC(=O)c1ccccc1[N+](=O)[O-])c1ccc(NS(=O)(=O)c2cccs2)cc1 | inconclusive: 89.1 µM [inhibitor, single point] | 
17 | CCOc1cc(C(=O)CCC(=O)OCC(=O)N2c3ccccc3NC(=O)C2(C)C)ccc1O | inconclusive: 100 µM [inhibitor, partial curve, poor fit] | 

Row | Compound | Potency | activity, negative = inhibition
18 | CC1=CC(C)(C)n2c(O)c(N=NC(N)=S)c3c(C)ccc1c32 | inactive | 
19 | COc1ccc(C(=O)c2ccc(Cl)c([N+](=O)[O-])c2)cc1 | inconclusive: 8.91 µM [inhibitor, full curve, poor fit] | 
20 | COc1cc(C(C[N+](=O)[O-])c2c(-c3ccccc3)cc3ccccn23)cc(OC)c1OC (centres undefined) | active: 35.5 µM | 
21 | O=S(=O)(c1ccc2ccccc2c1)n1cnc2ccccc21 | inactive | 
22 | Cc1cn2c(nc1=O)OC1CC2OC1CO (centres undefined) | inconclusive: 89.1 µM [inhibitor, single point] | 
23 | O=C(CCCn1c(=S)[nH]c2cc3c(cc2c1=O)OCO3)N1CCN(C2CCCCC2)CC1 | inconclusive: 39.8 µM [inhibitor, single point] | 
24 | Cc1cccc(NC(=O)CN(c2ccc(F)cc2)S(C)(=O)=O)c1 | inconclusive: 15.8 µM [inhibitor, partial curve, poor fit] | 
25 | Cc1cc(C)cc(NC(=O)C2CCN(S(C)(=O)=O)CC2)c1 |  | inactive: -10.3% [at 0.501 µM]
26 | CCCN1CCN(CCCNC(=O)C2CCN(c3nnc(-n4cccc4)s3)CC2)CC1 | inconclusive: 39.8 µM [inhibitor, partial curve, poor fit] | 
27 | O=C(O)c1ccc2c(=O)n3cc(C(=O)c4ccccc4O)cc(Cl)c3nc2c1 |  | inconclusive: -101% [inhibitor]
28 | Oc1c(C(c2ccc(F)cc2)N2CCCC2)sc2nc(-c3ccco3)nn12 (centres undefined) | active: 12.6 µM | 
29 | CCOc1cc(/C=N/N2CCN(Cc3ccccc3)CC2)ccc1O | inconclusive: 50.1 µM [inhibitor, partial curve, poor fit] | 
30 | O=c1c2ccccc2nc(/C=C/c2ccc([N+](=O)[O-])o2)n1CCCO | inconclusive: 100 µM [inhibitor, single point] | 
31 | Cc1ccc(S(=O)(=O)c2cn(C)c3cc(N4CCOCC4)c(F)cc3c2=O)c(C)c1 | inactive | 
32 | CCOc1cc(CNc2ccccc2)cc(Br)c1OCc1ccccc1F |  | inactive: 13.2% [at 12.7 µM]
33 | Cc1ccc(S(=O)(=O)NC(=O)Nc2ccc(N(C)C)cc2)cc1 | inconclusive: 3.16 µM [inhibitor, full curve, poor fit] | 
34 | COc1ccc(N(CC(=O)NCCOc2ccccc2)S(=O)(=O)c2ccc(C)cc2)cc1 | inconclusive: 50.1 µM [inhibitor, single point] | 
